Data on 60 molecules can be found in the supplement of paper PMC9446081.

Among all 39,000 compounds or so, about 220 (0.56%) showed activity. The list shows a part of the results.
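Note: static incubation at 37 °C against the wild-type strain, values averaged over two biological replicates.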

This assay deals with Escherichia coli K-12 BW25113. Kind of assay: relative growth (OD600 normalised to plate interquartile mean) (fraction); higher = less growth inhibition, active = 0.2 or less. The settings on record: 50 µM; LB; incubation time: overnight (16-24 h).
With `O=C(C[C@H]1C=C[C@@H](NC(=O)C2CCC2)[C@H](CO)O1)NCCCN1CCOCC1`, the relative growth is inactive: 0.986.

Take `CC(C)NC(=O)N1Cc2cc(C(=O)NC3Cc4ccccc4C3)nc(-c3cccc(-c4cccnc4)c3)c2[C@H]1CCO`: the relative growth was inactive: 0.995.

On to `CS(=O)(=O)CCOC(=O)C1=CC(CCCO)=C[C@@H](c2ccc(CN3CCCC3)cc2)N(Cc2sc3ccccc3c2Cl)C=C1C(=O)OCCS(C)(=O)=O`, for which the relative growth was inactive: 0.947.

`C[C@@H]1CN([C@H](C)CO[Si](C)(C)C(C)(C)C)C(=O)c2cc(NC(=O)C3CCCCC3)ccc2O[C@H]1CN(C)C(=O)c1ccc(Cl)cc1`: the relative growth was inactive: 0.998.

As to `C[C@@H]1CN([C@@H](C)CO)C(=O)c2cc(-c3cccc(C(=O)N(C)C)c3)cnc2O[C@H]1CN(C)S(=O)(=O)c1ccccc1`, the relative growth is inactive: 1.01.

Turning to `CC/N=C1\S[C@H](C(N)=O)CC(=O)N1CC`, the relative growth was inactive: 1.02.

As for `CC(=O)OCC(=O)C1(O)CCC2C3CCC4=CC(=O)C=CC4(C)C3(F)C(O)CC21C` (stereo not given), the relative growth is inactive: 1.16.

Turning to `C[C@H](CO)N1C[C@H](C)[C@H](CN(C)Cc2ccc(Cl)c(Cl)c2)Oc2ccc(NS(=O)(=O)c3cccs3)cc2C1=O`, the relative growth is inactive: 1.01.

`NCC(=O)Nc1ccc(F)c(F)c1F`: the relative growth is inactive: 1.01.

In the case of `C[C@@H]1CCCCO[C@@H](CN(C)S(=O)(=O)c2ccc(Cl)cc2)[C@@H](C)CN([C@H](C)CO)C(=O)c2cc(NC(=O)C3CCCCC3)ccc2O1`, the relative growth was inactive: 1.

For `CNCc1ccccc1.Cl`, the relative growth was inactive: 0.927.

Turning to `C[C@@H]1CCCCO[C@H](CN(C)C(=O)Nc2ccc3c(c2)OCO3)[C@H](C)CN([C@@H](C)CO)C(=O)c2cc(NC(=O)Nc3cccc4ccccc34)ccc2O1`, the relative growth is inactive: 1.01.

`CN(C)C(=O)CN1CCCN(CCn2nc3ccccn3c2=O)CC1`: the relative growth was inactive: 1.02.

In the case of `C[C@H](CO)N1C[C@H](C)[C@H](CN(C)CC2CCOCC2)Oc2ncc(C#CCc3ccccc3)cc2C1=O`, the relative growth is inactive: 1.02.

Take `C[C@@H]1CN([C@@H](C)CO)C(=O)c2cc(NC(=O)Nc3ccc(C(F)(F)F)cc3)ccc2O[C@H]1CN(C)Cc1ccc(-c2ccccc2)cc1`: the relative growth is inactive: 1.03.

For the molecule `C[C@@H](NC(=O)C[C@H]1C=C[C@H](NC(=O)CN2CCOCC2)[C@@H](CO)O1)c1ccccc1`, the relative growth was inactive: 0.922.

Turning to `Cc1ccc(S(=O)(=O)Nc2ccc3c(c2)C(=O)N([C@@H](C)CO)C[C@@H](C)[C@@H](CN(C)C(=O)Nc2ccc(C(F)(F)F)cc2)OCCCC[C@H](C)O3)cc1`, the relative growth is inactive: 1.02.

On to `Cc1ccc(S(=O)(=O)N(C)C[C@@H]2Oc3ccc(NS(=O)(=O)c4ccccc4)cc3CC(=O)N([C@H](C)CO)C[C@@H]2C)cc1`, for which the relative growth is inactive: 1.01.

In the case of `CC(=O)OC1CCC2(C)C(CC(OC(C)=O)C3(C)C2CCC2(C)C(c4ccoc4)OC(=O)C4OC423)C1(C)C` (stereo not drawn) [3beta-ACETOXYDEOXODIHYDROGEDUNIN], the relative growth is inactive: 1.06.

As to `COc1ccc(NC(=O)Nc2ccc3c(c2)C(=O)N([C@@H](C)CO)C[C@H](C)[C@H](CN(C)S(=O)(=O)c2ccccc2)OCCCC[C@@H](C)O3)cc1`, the relative growth was inactive: 1.03.

As for `CCCNC(=O)N(C)C[C@H]1Oc2cc(-c3ccc(C)cc3)ccc2S(=O)(=O)N([C@@H](C)CO)C[C@@H]1C`, the relative growth is inactive: 0.999.

`O=C(C[C@@H]1CC[C@H]2[C@@H](COC[C@@H](O)CN2C(=O)Nc2ccc(Cl)cc2)O1)NCCc1ccncc1`: the relative growth is inactive: 0.959.

On to `OCc1ccc2c(c1)OCCO2`, for which the relative growth was inactive: 1.

Consider `COc1ccc(CNS(=O)(=O)N(C)C)cc1`, for which the relative growth is inactive: 1.01.

Regarding `COc1ccc(CN(C)C[C@@H]2OCCCC[C@@H](C)Oc3ccc(NC(=O)Cc4ccccc4)cc3C(=O)N([C@H](C)CO)C[C@@H]2C)cc1`, the relative growth was inactive: 0.991.

Take `CO[C@H](C(=O)[C@@H](O)[C@@H](C)O)[C@H]1Cc2cc3cc(O[C@H]4C[C@@H](O[C@H]5C[C@@H](O)[C@@H](O)[C@@H](C)O5)[C@@H](O)[C@@H](C)O4)c(C)c(O)c3c(O)c2C(=O)[C@@H]1O[C@H]1C[C@@H](O[C@H]2C[C@@H](O[C@H]3C[C@@](C)(O)[C@@H](O)[C@@H](C)O3)[C@@H](O)[C@@H](C)O2)[C@@H](O)[C@@H](C)O1`: the relative growth is inactive: 1.03.

`Cc1noc(C)c1S(=O)(=O)N(C)C[C@H]1OCc2cn(nn2)CCCC(=O)N([C@H](C)CO)C[C@@H]1C`: the relative growth is inactive: 1.02.

Turning to `C[C@H]1CN([C@@H](C)CO)C(=O)c2cccc(NS(C)(=O)=O)c2O[C@H]1CN(C)S(=O)(=O)c1ccc(Cl)cc1`, the relative growth was inactive: 0.981.

For the molecule `CN(C)C(=O)C[C@H]1CC[C@H]2[C@H](COc3ccc(NS(=O)(=O)c4cccc(F)c4)cc3C(=O)N2C)O1`, the relative growth was inactive: 0.989.

As for `C[C@@H]1CN([C@@H](C)CO)C(=O)Cc2cc(NS(=O)(=O)c3ccc(Cl)cc3)ccc2O[C@H]1CN(C)Cc1ccc(Cl)c(Cl)c1`, the relative growth is inactive: 0.965.

In the case of `C[C@@H]1CN([C@@H](C)CO)S(=O)(=O)c2ccc(C#CCN(C)C)cc2O[C@H]1CN(C)Cc1ccncc1`, the relative growth was inactive: 1.01.

Take `NC(=O)c1ccnc(N2CCN(C(=O)C3CCOCC3)C[C@@H](O)C2)c1`: the relative growth is inactive: 0.953.

For `C[C@H]1CN([C@@H](C)CO)C(=O)c2cccc(NS(=O)(=O)c3ccccc3)c2O[C@H]1CN(C)Cc1ccc(Oc2ccccc2)cc1`, the relative growth is inactive: 0.968.

As for `C[C@H]1CN([C@@H](C)CO)C(=O)c2cccc(NC(=O)Nc3ccc(C(F)(F)F)cc3)c2O[C@H]1CN(C)Cc1ccc(-c2ccccc2)cc1`, the relative growth was inactive: 0.954.

Take `CC[C@@H](C)[C@@H](NC)C(=O)O`: the relative growth was inactive: 0.973.

On to `C[C@@H]1S[C@H](C)C(=O)NC1=O`, for which the relative growth is inactive: 1.

With `Cc1noc(C)c1S(=O)(=O)N(C)C[C@@H]1OCCCC[C@@H](C)Oc2ccc(NC(=O)Nc3ccc(F)cc3)cc2C(=O)N([C@@H](C)CO)C[C@@H]1C`, the relative growth is inactive: 1.01.

`CC(=O)OC1CCC2(C)C(CCC3(C)C2CC=C2C4CC(C)(C)CCC4(C)CCC23C)C1(C)C` (stereo not drawn) [beta-AMYRIN ACETATE]: the relative growth is inactive: 1.16.

Take `C[C@@H]1CN([C@@H](C)CO)C(=O)CCCn2nncc2CO[C@H]1CN(C)Cc1ccc2c(c1)OCCN2C`: the relative growth was inactive: 0.98.

For `C[C@@H]1CCCCO[C@H](CN(C)Cc2ccc(C(=O)O)cc2)[C@@H](C)CN([C@@H](C)CO)C(=O)c2cc(NS(=O)(=O)c3ccccc3)ccc2O1`, the relative growth was inactive: 0.973.

For the molecule `N[C@@H](Cc1ccc(F)cc1)C(=O)O`, the relative growth was inactive: 0.998.

For the molecule `C[C@@H]1CN([C@@H](C)CO)C(=O)c2cc(NC(=O)c3ccccc3)ccc2O[C@@H](C)CCCCO[C@H]1CN(C)C(=O)C1CCCCC1`, the relative growth is inactive: 0.992.

On to `C[C@@H]1CCCCO[C@H](CN(C)C(=O)Nc2ccc3c(c2)OCO3)[C@H](C)CN([C@@H](C)CO)C(=O)c2cc(NC(=O)NC3CCCCC3)ccc2O1`, for which the relative growth is inactive: 1.01.

Take `C[C@@H]1CCCCO[C@H](CN(C)Cc2ccncc2)[C@@H](C)CN([C@@H](C)CO)C(=O)c2cc(NC(=O)CCC(F)(F)F)ccc2O1`: the relative growth was inactive: 0.998.

On to `C[C@@H]1CN([C@H](C)CO)C(=O)c2cc(NS(=O)(=O)c3cccs3)ccc2O[C@@H](C)CCCCO[C@@H]1CN(C)Cc1ccccc1`, for which the relative growth was inactive: 0.987.

`C[C@H](CO)N1C[C@H](C)[C@@H](CN(C)S(C)(=O)=O)Oc2cc(C#CCN(C)C)ccc2S1(=O)=O`: the relative growth was inactive: 0.999.

As for `COC(=O)c1c2oc(c1C(=O)OC)C(=O)N[C@@H](Cc1ccccc1)Cn1cc(nn1)CNC(=O)[C@@H](Cc1ccccc1)NC(=O)N[C@@H](CO)CC2`, the relative growth was inactive: 1.02.

As to `C[C@@H]1CN([C@@H](C)CO)C(=O)c2cc(NS(=O)(=O)c3cn(C)cn3)ccc2O[C@@H](C)CCCCO[C@H]1CN(C)C`, the relative growth was inactive: 0.955.

In the case of `C[C@H](CO)N1C[C@H](C)[C@H](CN(C)Cc2ccc(-c3ccccc3)cc2)Oc2c(NC(=O)c3ccncc3)cccc2C1=O`, the relative growth is inactive: 0.998.

As for `COC1C(OC(N)=O)C(O)C(Oc2ccc3c([O-])c(NC(=O)c4ccc(O)c(CC=C(C)C)c4)c(=O)oc3c2C)OC1(C)C.[Na+]` (stereo not given), the relative growth is inactive: 0.701.

Take `CO[C@@H](CN(C)C(=O)Nc1ccc(C(F)(F)F)cc1)[C@H](C)CN(Cc1ccccc1Cl)[C@@H](C)CO`: the relative growth was inactive: 1.01.

Take `Cn1cc(N)cn1`: the relative growth was inactive: 0.989.

Regarding `C[C@@H]1CCCCO[C@@H](CN(C)C(=O)NC2CCCCC2)[C@@H](C)CN([C@@H](C)CO)C(=O)c2cc(NC(=O)Nc3ccc(C(F)(F)F)cc3)ccc2O1`, the relative growth was inactive: 1.01.

For the molecule `CNC[C@@H]1OCCCC[C@@H](C)Oc2ccc(NS(=O)(=O)c3c(C)noc3C)cc2C(=O)N([C@@H](C)CO)C[C@H]1C`, the relative growth is inactive: 1.03.

For `C[C@@H]1CCCCO[C@@H](CN(C)C(=O)Nc2ccccc2)[C@@H](C)CN([C@H](C)CO)C(=O)c2cc(NC(=O)Nc3cccc4ccccc34)ccc2O1`, the relative growth is inactive: 1.02.

As for `NCc1cc(-c2ccccc2Cl)on1`, the relative growth was inactive: 0.971.

Turning to `Cc1noc(C)c1S(=O)(=O)Nc1ccc2c(c1)C(=O)N([C@H](C)CO)C[C@H](C)[C@@H](CN(C)C(=O)Nc1ccccc1)OCCCC[C@@H](C)O2`, the relative growth is inactive: 0.941.

`COC(=O)C1(C)CCCC2(C)c3ccc(C(C)C)cc3C(=O)CC12` (stereo not given): the relative growth was inactive: 1.12.

For `COc1ccc([Si](C)(C)[C@H]2[C@H](CC(=O)N3Cc4ccccc4C[C@H]3CO)O[C@@]3(C(=O)N(Cc4ccc(N5CCC5=O)cc4)c4ccccc43)[C@@H]2C)cc1`, the relative growth is inactive: 1.02.

Take `Cc1ccc(S(=O)(=O)N(C)C[C@@H]2Oc3c(NS(=O)(=O)c4cccs4)cccc3C(=O)N([C@H](C)CO)C[C@H]2C)cc1`: the relative growth is inactive: 1.02.
